# Test results from the supplement of paper PMC4967469.
# A lower IC50 marks a more sensitive line; a limit (>, <) means that the fit lies beyond the doses tested. The AUC spans the tested range (256-fold, ending at the top dose) of the same fit; it is 1 without any effect and falls as sensitivity rises. For some of these results: An inferred top dose was calculated from the reported fits. For some of these results: An entry number marks a drug with two screens in the source, which often give different values.
# Key:
# Assay in all cases: Viability of human cancer cell lines after 72 h of drug (GDSC screen)
# CEP-701 = compound: C[C@]12O[C@H](C[C@]1(O)CO)n1c3ccccc3c3c4c(c5c6ccccc6n2c5c31)CNC4=O [CEP-701]; conditions: top dose 2 µM; top dose inferred
# Description: (§1)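 Human cancer cell lines in 384-well plates, medium with 10% serum, drug for 72 h over a 256-fold dose range (nine 2-fold or five 4-fold steps up to the top dose). Adherent lines were fixed and stained with the nucleic acid dye Syto60, suspension lines read with resazurin; signal relative to control wells, capped at 0 and 100%. One two-parameter sigmoid per drug and line, fitted in a mixed model over all curves with the slope shared within a line.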
# AR-42 = compound: CC(C)[C@H](C(=O)Nc1ccc(C(=O)NO)cc1)c1ccccc1 [AR-42]; conditions: top dose 5.12 µM; top dose inferred
# Description: as §1
# GDC0941 = compound: CS(=O)(=O)N1CCN(Cc2cc3nc(-c4cccc5[nH]ncc45)nc(N4CCOCC4)c3s2)CC1 [GDC0941]; conditions: top dose 4 µM; screen: GDSC drug entry 1527; top dose inferred
# Description: as §1
# Pazopanib = compound: Cc1ccc(Nc2nccc(N(C)c3ccc4c(C)n(C)nc4c3)n2)cc1S(N)(=O)=O [Pazopanib]; conditions: top dose 8 µM
# Description: as §1
# SB 216763 = compound: Cn1cc(C2=C(c3ccc(Cl)cc3Cl)C(=O)NC2=O)c2ccccc21 [SB 216763]; conditions: top dose 10 µM; top dose inferred
# Description: as §1
Cell Line,AUC (CEP-701),IC50 (CEP-701),AUC (AR-42),IC50 (AR-42),AUC (GDC0941),IC50 (GDC0941),AUC (Pazopanib),IC50 (Pazopanib),AUC (SB 216763),IC50 (SB 216763)
"HCC-78 (lung adenocarcinoma, adherent)",0.702,515 nM,0.529,389 nM,0.689,935 nM,0.953,> 8000 nM,0.96,> 10000 nM
"H3255 (lung adenocarcinoma, adherent)",0.76,832 nM,0.804,3160 nM,0.846,3810 nM,0.874,> 8000 nM,0.983,> 10000 nM
"HT-115 (large intestine, adherent)",0.85,1320 nM,0.563,467 nM,0.886,3760 nM,0.969,> 8000 nM,0.962,> 10000 nM
"HCC1419 (breast, adherent)",0.969,> 2000 nM,0.618,777 nM,0.869,> 4000 nM,0.877,> 8000 nM,0.982,> 10000 nM
"MEL-JUSO (melanoma, adherent)",0.698,484 nM,0.54,417 nM,0.785,1930 nM,0.975,> 8000 nM,0.984,> 10000 nM
"HO-1-u-1 (head and neck, adherent)",0.617,258 nM,0.666,909 nM,0.879,3790 nM,0.931,> 8000 nM,0.938,> 10000 nM
"T47D (breast, adherent)",0.879,> 2000 nM,0.471,255 nM,0.535,327 nM,0.945,> 8000 nM,0.96,> 10000 nM
"IPC-298 (melanoma, adherent)",0.224,19.9 nM,0.422,196 nM,0.849,2920 nM,0.934,> 8000 nM,0.988,> 10000 nM
"WM278 (melanoma, adherent)",0.577,209 nM,0.792,2660 nM,0.778,1840 nM,0.978,> 8000 nM,0.905,> 10000 nM
"EPLC-272H (lung squamous cell carcinoma, adherent)",0.532,,0.456,238 nM,0.643,658 nM,0.906,> 8000 nM,0.981,> 10000 nM
"NCI-H1623 (lung adenocarcinoma, adherent)",0.872,> 2000 nM,0.564,498 nM,0.735,1390 nM,0.985,> 8000 nM,0.985,> 10000 nM
"NCI-H441 (lung adenocarcinoma, adherent)",0.878,> 2000 nM,0.768,2730 nM,0.682,998 nM,0.965,> 8000 nM,0.965,> 10000 nM
"CHSA0011 (chondrosarcoma, adherent)",0.741,825 nM,0.855,> 5120 nM,0.727,1450 nM,0.955,> 8000 nM,0.971,> 10000 nM
"5637 (bladder, adherent)",0.407,71.4 nM,0.368,144 nM,0.891,3910 nM,0.977,> 8000 nM,0.933,> 10000 nM
"RMG-I (ovary, adherent)",0.912,> 2000 nM,0.613,690 nM,0.606,513 nM,0.862,> 8000 nM,0.983,> 10000 nM
"Detroit562 (head and neck, adherent)",0.595,225 nM,0.823,2860 nM,0.845,2740 nM,0.98,> 8000 nM,0.979,> 10000 nM
"FU-OV-1 (ovary, adherent)",0.948,> 2000 nM,0.879,> 5120 nM,0.818,3240 nM,0.969,> 8000 nM,0.951,> 10000 nM
"LK-2 (lung squamous cell carcinoma, adherent)",0.555,175 nM,0.53,384 nM,0.925,> 4000 nM,0.758,,0.989,> 10000 nM
"SW13 (adrenal gland, adherent)",0.712,500 nM,0.976,> 5120 nM,0.675,773 nM,0.9,> 8000 nM,0.987,> 10000 nM
"BHT-101 (thyroid, adherent)",0.71,499 nM,0.404,174 nM,0.556,357 nM,0.975,> 8000 nM,0.896,> 10000 nM
"CHSA0108 (chondrosarcoma, adherent)",0.552,177 nM,0.343,109 nM,0.553,358 nM,0.93,> 8000 nM,0.982,> 10000 nM
"RERF-LC-MS (lung adenocarcinoma, adherent)",0.748,657 nM,0.612,657 nM,0.75,1340 nM,0.922,> 8000 nM,0.946,> 10000 nM
"42-MG-BA (glioma, adherent)",0.626,286 nM,0.683,1080 nM,0.743,1320 nM,0.559,731 nM,0.98,> 10000 nM
"HEC-1 (endometrium, adherent)",0.642,303 nM,0.642,779 nM,0.855,3010 nM,0.961,> 8000 nM,0.979,> 10000 nM
"SKG-IIIa (cervix, adherent)",0.585,232 nM,0.842,> 5120 nM,0.893,> 4000 nM,0.977,> 8000 nM,0.966,> 10000 nM
"CAL-29 (bladder, adherent)",0.793,991 nM,0.607,644 nM,0.641,633 nM,0.985,> 8000 nM,0.938,> 10000 nM

Cell Line,AUC (CEP-701),IC50 (CEP-701),AUC (AR-42),IC50 (AR-42),AUC (GDC0941),IC50 (GDC0941),AUC (Pazopanib),IC50 (Pazopanib),AUC (SB 216763),IC50 (SB 216763)
"NCI-H520 (lung squamous cell carcinoma, adherent)",0.579,207 nM,0.562,476 nM,0.885,> 4000 nM,0.822,4870 nM,0.987,> 10000 nM
"GMS-10 (glioma, adherent)",0.667,364 nM,0.973,> 5120 nM,0.682,806 nM,0.971,> 8000 nM,0.985,> 10000 nM
"K2 (melanoma, adherent)",0.775,1040 nM,0.726,1720 nM,0.85,> 4000 nM,0.943,> 8000 nM,0.982,> 10000 nM
"RCM-1 (large intestine, adherent)",0.791,1120 nM,0.594,613 nM,0.923,> 4000 nM,0.975,> 8000 nM,0.97,> 10000 nM
"LS-180 (large intestine, adherent)",0.813,1270 nM,0.658,939 nM,0.613,536 nM,0.985,> 8000 nM,0.966,> 10000 nM
"SCC-9 (head and neck, adherent)",0.786,1130 nM,0.568,517 nM,0.491,234 nM,0.981,> 8000 nM,0.981,> 10000 nM
"SU8686 (pancreas, adherent)",0.793,1040 nM,0.781,2410 nM,0.886,> 4000 nM,0.982,> 8000 nM,0.984,> 10000 nM
"JHH-6 (liver, adherent)",0.797,961 nM,0.745,1630 nM,0.692,872 nM,0.982,> 8000 nM,0.987,> 10000 nM
"PCI-15A (head and neck, adherent)",0.683,408 nM,0.987,> 5120 nM,0.943,> 4000 nM,0.949,> 8000 nM,0.955,> 10000 nM
"KYM-1 (rhabdomyosarcoma, adherent)",0.808,860 nM,0.551,431 nM,0.896,3640 nM,0.978,> 8000 nM,0.991,> 10000 nM
"IHH-4 (thyroid, semi-adherent)",0.536,153 nM,0.518,355 nM,0.86,2340 nM,0.945,> 8000 nM,0.99,> 10000 nM
"JHH-4 (liver, adherent)",0.715,506 nM,0.364,135 nM,0.827,2440 nM,0.546,667 nM,0.847,7300 nM
"SK-N-SH (neuroblastoma, adherent)",0.657,339 nM,0.434,211 nM,0.836,2630 nM,0.824,4690 nM,0.98,> 10000 nM
"SK-MEL-3 (melanoma, adherent)",0.54,163 nM,0.598,623 nM,0.858,> 4000 nM,0.925,> 8000 nM,0.983,> 10000 nM
"NCI-H358 (lung adenocarcinoma, adherent)",0.913,> 2000 nM,0.516,355 nM,0.865,> 4000 nM,0.892,> 8000 nM,0.978,> 10000 nM
"A431 (skin, adherent)",0.646,310 nM,0.428,205 nM,0.842,2640 nM,0.879,7600 nM,0.975,> 10000 nM
"CAL-120 (breast, adherent)",0.607,268 nM,0.687,1250 nM,0.706,1140 nM,0.909,> 8000 nM,0.977,> 10000 nM
"HuO-3N1 (osteosarcoma, adherent)",0.681,474 nM,0.846,> 5120 nM,0.815,3140 nM,0.884,> 8000 nM,0.982,> 10000 nM
"BT-483 (breast, adherent)",0.915,> 2000 nM,0.975,> 5120 nM,0.87,> 4000 nM,0.973,> 8000 nM,0.978,> 10000 nM
"OE19 (oesophagus, adherent)",0.865,> 2000 nM,0.776,2330 nM,0.883,> 4000 nM,0.979,> 8000 nM,0.943,> 10000 nM
"KE-37 (lymphoblastic leukaemia, suspension)",0.185,19.8 nM,0.302,104 nM,0.965,> 4000 nM,0.985,> 8000 nM,0.992,> 10000 nM
"HCC-56 (large intestine, adherent)",0.891,> 2000 nM,0.509,339 nM,0.892,> 4000 nM,0.987,> 8000 nM,0.964,> 10000 nM
"NCI-H292 (lung adenocarcinoma, adherent)",0.463,97.1 nM,0.487,292 nM,0.494,239 nM,0.976,> 8000 nM,0.928,> 10000 nM
"CHP-126 (neuroblastoma, suspension)",0.73,576 nM,0.851,4100 nM,0.975,> 4000 nM,0.987,> 8000 nM,0.987,> 10000 nM
"NCI-H2291 (lung adenocarcinoma, adherent)",0.801,1450 nM,0.984,> 5120 nM,0.594,501 nM,0.983,> 8000 nM,0.983,> 10000 nM
